# Data as given in PubChem BioAssay AID602313 (National Center for Advancing Translational Sciences (NCATS), 2012).
# The campaign covered roughly 390,000 compounds. About 760 (0.19%) were called active. Inconclusive results (about 3%) are left out. Calls come from the whole dose curve; as a rule, active = well fitted inhibition curve with a large enough effect; inconclusive = small, poorly fitted or top-dose-only effect; inactive = flat fitted curve, though single readings scatter. The list shows a part of the results, in another mix than the full data.
# Experiment: qHTS for Inhibitors of Vif-A3F Interactions: qHTS; note: nearly all actives have a fitted effect of over 65% in size; for activity, negative = active: % of control where 0% means no effect
# Conditions: HeLa A3F-eYFP + Vif (tagged APOBEC3F with the HIV-1 protein that degrades it), YFP fluorescence increase; series mostly up to 46.1 µM; activity, negative = active: at the top concentration
# From the text: The recent discovery and characterization of host restriction factors, which provide a potent defense to invading retroviruses, has provided new targets for antiviral drug development. APOBEC3G (A3G) and APOBEC3F (A3F) are potent cytidine deaminases that block HIV-1 replication; HIV-1 expresses the Vif protein, which counteracts A3G and A3F by binding to them and inducing their proteasomal degradation. The Vif-A3G and Vif-A3F interactions provide two potential targets for development of small molecules which can interfere with the ability of Vif to degrade A3G or A3F. […] To identify inhibitors that can interfere with Vif mediated degradation of A3G and A3F, we have developed Hela cell lines that stably express A3G or A3F tagged with eYFP at the C-terminal end (A3G-eYFP or A3F-eYFP, respectively) and Vif. In the absence of an inhibitor, Vif induces degradation of A3G-eYFP and A3F-eYFP, and the cells are not fluorescent. In the presence of an inhibitor, it is expected that Vif will be unable to degrade A3G-eYFP and/or A3F-eYFP, resulting in an increase in yellow fluorescence. In this assays Vif A3F was screened against the Molecular Library Small Molecule Repository (MLSMR). NIH Chemical Genomics Center [NCGC] NIH Molecular Libraries Probe Centers Network [MLPCN] MLPCN Grant: MH093245 Assay Submitter (PI): Vinay Pathak, National Cancer Institute
# 5 uL of 700 cells/well of A3F-YFP cells are dispensed into black, clear bottom plates. The plates are incubated overnight at 37 deg C. 23 nL of compounds are added by pintool. The plates are incubated overnight at 37 deg C and then read on the TTP Acumen (Ex 488/ Em 500-530).
# Potency is the fitted concentration of half-maximal effect.
SMILES,"activity, negative = active",Potency
COc1cc(OC)c(OC)cc1/C=C1\C(=O)NC(=O)N(Cc2ccccc2)C1=O,inactive: -69.5%,
O=C1NC(=O)N(CCc2ccc(F)cc2)C(=O)/C1=C/C=C/c1ccccc1,inactive: -0.343%,
CCOc1ccc(CNC(=O)c2cccc(Nc3nc4ccccc4n4nnnc34)c2)cc1OC,,active: 12.6 µM
CN1CCC2(CC1)C(C#N)=C(N)NC(S)=C2C#N,inactive: -1.97%,
C=C(C)[C@@H]1CC[C@]2(C(=O)O)CC[C@]3(C)C(CCC4[C@@]5(C)CC[C@H](O)C(C)(C)C5CC[C@]43C)C12 (some centres not stated),inactive: 2.6%,
Cc1ccc(/C=C2\C(=O)NC(=O)N(CCc3ccc(F)cc3)C2=O)s1,inactive: -14.2%,
ClCCN(CCCl)c1ccc(C=Cc2ccncn2)cc1,,active: 22.4 µM
Cn1cccc1/C=C1\C(=O)NC(=O)N(Cc2ccccc2)C1=O,inactive: -13.6%,
CC(C)C[C@H]1C(=O)N2CCCC2[C@]2(O)O[C@](NC(=O)[C@@H]3C=C4c5cccc6[nH]cc(c56)CC4N(C)C3)(C(C)C)C(=O)N12 (some centres not stated),inactive: -17.3%,
CC(=O)C1CCC2C3CCC4CC(O)CCC4(C)C3CCC12C (configuration not stated),inactive: -2.51%,
Cc1ccc(N2C(=O)NC(=O)/C(=C\C=C\c3ccco3)C2=O)cc1,inactive: -15.2%,
CCOC(=O)c1ccc(Nc2nc(C)cc(C)n2)cc1,inactive: 1.65%,
N#C/C(=C(/O)c1ccc(S(=O)(=O)N(CCCl)CCCl)cc1)c1nc2ccccc2[nH]1,inactive: 1.54%,
CCN(CC)c1ccc(/C=C2\C(=O)NC(=O)N(Cc3ccco3)C2=O)cc1,inactive: -23.2%,
Cc1cc(C)cc(N2C(=O)NC(=O)/C(=C\c3cccn3-c3ccc(Cl)cc3)C2=O)c1,inactive: -1.53%,
CN1CCN(c2ccc(/C=C3\C(=O)NC(=S)N(c4cccc(Br)c4)C3=O)o2)CC1,,active: 25.1 µM
C=C1C(=O)O[C@@H]2C[C@@H](C)[C@@H]3C=CC(=O)[C@@]3(C)[C@@H](O)[C@H]12,inactive: 3.14%,
COc1ccc(N2C(=O)NC(=O)/C(=C/c3ccc([N+](=O)[O-])s3)C2=O)cc1,inactive: -12.9%,
COc1cccc(CCNCc2ccc(SC)cc2)c1,inactive: 20.2%,
O=c1[nH]c(O)c(/C=C2\C=Nc3ccc(OCc4ccccc4)cc32)c(=O)[nH]1,,active: 12.6 µM
O=C1NC(=O)N(c2ccccc2)C(=O)/C1=C/c1ccc([N+](=O)[O-])s1,inactive: 1.11%,
O=C1NC(=O)N(Cc2ccccc2)C(=O)/C1=C\N1CCCc2ccccc21,inactive: -22.8%,
